{
  "source": "PubChem BioAssay AID1347043",
  "about": "(National Center for Advancing Translational Sciences (NCATS), 2019)",
  "note": "Screen size: about 76,000 compounds; about 1,900 (2.5%) were called active. The inconclusive results got no clear call from the source; some entries with a clear call stand among them for comparison. The call rests on the fitted dose curve; in most records, active means well fitted inhibition curve with a large enough effect; inconclusive means small, poorly fitted or top-dose-only effect; inactive means flat fitted curve, though single readings scatter. Potencies of inconclusive entries are doubtful fits and often do not repeat. On the % scale 0 is the no-effect control and ±100 the full control effect; potency means the concentration at half of the fitted maximal effect; tags describe the fitted curve by direction and shape.",
  "data": [
    {"molecular_target": "Luciferin 4-monooxygenase (Photinus pyralis) (UniProt P08659)", "sequence (P08659 whole entry, looked up)": "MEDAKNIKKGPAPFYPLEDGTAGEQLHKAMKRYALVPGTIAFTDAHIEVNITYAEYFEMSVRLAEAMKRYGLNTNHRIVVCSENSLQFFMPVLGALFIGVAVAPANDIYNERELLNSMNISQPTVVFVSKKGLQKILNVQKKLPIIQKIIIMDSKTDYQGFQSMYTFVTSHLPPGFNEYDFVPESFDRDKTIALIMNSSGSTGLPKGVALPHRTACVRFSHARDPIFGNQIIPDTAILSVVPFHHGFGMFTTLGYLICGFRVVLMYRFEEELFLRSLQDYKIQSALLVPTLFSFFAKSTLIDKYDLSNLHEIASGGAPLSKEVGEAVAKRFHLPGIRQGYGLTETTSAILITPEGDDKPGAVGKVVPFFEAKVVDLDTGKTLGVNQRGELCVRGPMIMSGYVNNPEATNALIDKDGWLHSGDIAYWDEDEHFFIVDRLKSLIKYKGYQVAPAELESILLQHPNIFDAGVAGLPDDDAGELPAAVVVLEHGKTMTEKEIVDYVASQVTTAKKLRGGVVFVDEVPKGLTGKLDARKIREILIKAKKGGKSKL", "test": "Firefly luciferase inhibition profiling of diverse chemical library using quantitative high-throughput screening; further: nearly all actives have a fitted effect of over 65% in size", "conditions": "purified P. pyralis luciferase, luminescence, biochemical; activity change, negative = inhibition: at 115 µM (top of the series) unless noted", "in_short": "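Purified P. pyralis luciferase (10nM final) in 50mM Tris acetate pH 7.5, 10mM Mg acetate, 0.01% Tween-20, 0.05% BSA with 10uM D-luciferin and 10uM ATP. Compounds titrated qHTS. Luminescence imaged on CCD.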", "values": [
      {"smiles": "CN1C(=O)CCC2(CNC(=O)Nc3ccc4c(c3)OCCO4)CCCC=C12", "note": "(stereo unspecified)", "Potency": "inconclusive: 25.1 µM [inhibitor, partial curve]"},
      {"smiles": "Cc1ccc(C(=O)Nc2ccc3c(N4CCOCC4)ncnc3c2)cc1C", "Potency": "inconclusive: 44.7 µM [inhibitor, partial curve]"},
      {"smiles": "COc1cc(=O)n2c(c1C(=O)Nc1ccc(N(C)C)cc1)CCCC2", "Potency": "active: 35.5 µM"},
      {"smiles": "O=C(c1ccc(-c2ccc(O)cc2)cc1)N1CCOC2(CNCCOC2)C1", "note": "(stereo unspecified)", "activity change, negative = inhibition": "inactive: -16%"},
      {"smiles": "Cc1ccn(CC(=O)N[C@@H]2CN(c3ccncn3)C[C@H]2CN(C)C)n1", "activity change, negative = inhibition": "inactive: -2.88%"},
      {"smiles": "Fc1ccccc1CCNc1cc(Cl)nc2ccnn12", "Potency": "inconclusive: 89.1 µM [inhibitor, partial curve]"},
      {"smiles": "COc1ccc(CNC(=O)c2noc(-c3ccc(C)cc3)n2)cc1OC", "Potency": "inconclusive: 44.7 µM [inhibitor, partial curve]"},
      {"smiles": "Cc1cn2nc(C(=O)N3CCC(NC(=O)c4cccc(N(C)C)c4)CC3)cc2c(=O)[nH]1", "Potency": "active: 35.5 µM"},
      {"smiles": "COc1ccc(NC(=O)N2CCc3c(C(=O)N(C)C)cccc32)cc1", "Potency": "active: 0.251 µM"},
      {"smiles": "O=C(NC1CC1)c1ccccc1OC1CN(Cc2cccc(C(F)(F)F)c2)C1", "activity change, negative = inhibition": "inactive: 0%"},
      {"smiles": "COc1ccc(-c2cc3c(=O)n(CCNC(=O)c4ccc(F)cc4)ccn3n2)cc1", "Potency": "inconclusive: 3.16 µM [inhibitor, full curve]"},
      {"smiles": "Cc1cn2nc(C(=O)N3CCC(C(=O)Nc4ccccc4)CC3)cc2c(=O)[nH]1", "Potency": "inconclusive: 39.8 µM [inhibitor, partial curve]"},
      {"smiles": "CCN(Cc1ccc(C)o1)C(=O)c1ccc2nc(-c3ccc(F)cc3)cn2c1", "Potency": "active: 39.8 µM"},
      {"smiles": "Cc1oc2ccn(Cc3ccccc3F)c(=O)c2c1C(=O)NCc1cccc(Cl)c1", "activity change, negative = inhibition": "inactive: -5.05%"},
      {"smiles": "Cc1ccc(-c2cc3c(=O)n(CCNC(=O)c4nn(C)c5ccccc45)ccn3n2)c(C)c1", "Potency": "active: 1.41 µM"},
      {"smiles": "Cc1ccc(C(=O)N(C)C2CCc3ccccc32)cc1", "note": "(stereo unspecified)", "Potency": "inconclusive: 50.1 µM [inhibitor, partial curve, poor fit]"},
      {"smiles": "Cc1ccc(NC(=O)N2Cc3[nH]cnc3C[C@H]2c2nc(-c3ccc4ccccc4c3)no2)cc1", "Potency": "active: 20 µM"},
      {"smiles": "O=C(NCCc1ccccc1)N1CCC2(CC1)CC(N1CCCC1)CCO2", "note": "(stereo unspecified)", "Potency": "inconclusive: 39.8 µM [inhibitor, partial curve]"},
      {"smiles": "CN(C)C(=O)CN1C(=O)CO[C@H](c2ccc(NS(=O)(=O)Cc3ccccc3)cc2)[C@H]1CO", "activity change, negative = inhibition": "inactive: -1.24%"},
      {"smiles": "CN1CCC2(CC1)CN(C(=O)c1cncc(Br)c1)Cc1ccccc1O2", "activity change, negative = inhibition": "inactive: 6.32%"},
      {"smiles": "CCCN(C)c1nccnc1OC1CCN(C(=O)C2CCCCC2)C1", "note": "(stereo unspecified)", "Potency": "inconclusive: 39.8 µM [inhibitor, partial curve]"},
      {"smiles": "COc1ccc(-c2cc(-c3ccncc3)c3cncn3c2)cc1", "Potency": "inconclusive: 70.8 µM [inhibitor, partial curve, poor fit]"},
      {"smiles": "C[C@H]1CCCN1C(=O)c1nnc(COc2cccc(Cl)c2)n1-c1ccccc1", "activity change, negative = inhibition": "inactive: -6.41% [at 172 µM]"},
      {"smiles": "CC(C)NC(=O)N1CCNc2cnc(Nc3cccc(C(F)(F)F)c3)nc2C1", "activity change, negative = inhibition": "inactive: 12.1% [at 172 µM]"},
      {"smiles": "Cc1cn2nc(C(=O)Nc3ccc4c(c3)OCCO4)cc2c(N2CCCC2)n1", "activity change, negative = inhibition": "inactive: -13.4%"},
      {"smiles": "COc1ccccc1-c1cnc(Nc2cccnc2)c2c1CCO2", "Potency": "inconclusive: 70.8 µM [inhibitor, partial curve]"},
      {"smiles": "COc1ccccc1C(=O)Nc1ccc([C@H]2OCC(=O)N(Cc3ccccc3)[C@@H]2CO)cc1", "activity change, negative = inhibition": "inactive: -7.35%"},
      {"smiles": "CCn1cc(-c2ccc(F)cc2)cc1C(=O)O", "activity change, negative = inhibition": "inactive: -23.6%"},
      {"smiles": "Cc1ccc(NC(=O)N2CCCC(c3noc(COc4ccccc4)n3)C2)cc1C", "note": "(stereo unspecified)", "Potency": "active: 3.98 µM"},
      {"smiles": "O=C(NCCCN1CCOCC1)c1ccc(-c2ccc(N3CCCCCC3)nc2)cc1", "Potency": "inconclusive: 50.1 µM [inhibitor, partial curve]"},
      {"smiles": "COc1ccc(-c2cc(N3CCCN(C(=O)c4ccco4)CC3)n[nH]2)cc1", "Potency": "inconclusive: 50.1 µM [inhibitor, partial curve, poor fit]"},
      {"smiles": "COc1cccc(CN2CCc3c(cc(C(=O)Nc4cc(C)ccc4C)n3C)C2)c1", "Potency": "active: 31.6 µM"},
      {"smiles": "CCN(CC1CCCO1)C(=O)c1ccc2nc(-c3ccc(F)cc3)cn2c1", "note": "(stereo unspecified)", "Potency": "inconclusive: 44.7 µM [inhibitor, partial curve]"},
      {"smiles": "O=C1CC(c2ccccc2)N(C(=O)CNC(=O)c2n[nH]c3ccccc23)CCCCCN1", "note": "(stereo unspecified)", "Potency": "active: 25.1 µM"},
      {"smiles": "COc1ccc(NC(=O)N[C@@H]2C=C[C@@H](c3c(C)nn(-c4ccccn4)c3C)C2)cc1", "Potency": "inconclusive: 50.1 µM [inhibitor, partial curve]"},
      {"smiles": "CC(=O)Nc1ccc(NC(=O)CN2C(=O)NC(c3ccccc3Cl)C3=C2COC3=O)cc1", "note": "(stereo unspecified)", "Potency": "inconclusive: 39.8 µM [inhibitor, partial curve]"},
      {"smiles": "Cc1ccsc1-c1[nH]nc2ncc(-c3cccc(O)c3)nc12", "Potency": "inconclusive: 79.4 µM [inhibitor, partial curve]"},
      {"smiles": "CCNC(=O)C1C(c2cccc(NC(=O)c3ccccc3)c2)OC(=O)N1Cc1ccc(F)cc1", "note": "(stereo unspecified)", "Potency": "inconclusive: 50.1 µM [inhibitor, partial curve]"},
      {"smiles": "Cc1ccc(OCc2nc(C3CCCN3C(=O)Nc3ccc(C)c(F)c3)no2)cc1", "note": "(stereo unspecified)", "activity change, negative = inhibition": "inactive: -15.6%"},
      {"smiles": "CCc1cccc(NC(=O)Cn2c(-c3cnccn3)nc(C)c(CCO)c2=O)c1", "activity change, negative = inhibition": "inactive: -2.48%"},
      {"smiles": "CC(C)Oc1cccc2c1c(NC(=O)c1ccn(C)n1)nn2Cc1ccccc1", "Potency": "inconclusive: 44.7 µM [inhibitor, partial curve]"},
      {"smiles": "CCOc1ccc(CN2CCN(c3ncnc4[nH]ccc34)CC2CCO)cc1", "note": "(stereo unspecified)", "Potency": "inconclusive: 39.8 µM [inhibitor, partial curve, poor fit]"},
      {"smiles": "COc1ccc(-c2cc(CNc3ncncn3)no2)cc1", "Potency": "inconclusive: 20 µM [inhibitor, partial curve]"},
      {"smiles": "Fc1cccc(Nc2cnc3ccc(-c4ccccc4)nn23)c1", "Potency": "inconclusive: 50.1 µM [inhibitor, partial curve]"},
      {"smiles": "CC(C)Oc1ccc(CNC(=O)c2noc(-c3ccccc3F)n2)cc1", "Potency": "inconclusive: 44.7 µM [inhibitor, partial curve]"},
      {"smiles": "COc1ccccc1C(=O)NC1CCN(c2ccccc2)C1=O", "note": "(stereo unspecified)", "Potency": "inconclusive: 39.8 µM [inhibitor, partial curve]"}
    ]}
  ]
}
